# PubChem BioAssay AID504339 (National Center for Advancing Translational Sciences (NCATS), 2011)
# Hit rate of the full screen: of about 390,000 compounds, about 17,000 (4.4%) were called active. The shares of active, inactive and inconclusive entries below differ from those in the screen. The call rests on the fitted dose curve; in most records, active means well fitted inhibition curve with a large enough effect; inconclusive means small, poorly fitted or top-dose-only effect; inactive means no such curve, though single readings can be large or run the other way. A potency beside an inconclusive call is a rough fit, not a confirmed value.
# Target: Lysine-specific demethylase 4A (Homo sapiens) (UniProt O75164)
# Assay: qHTS Assay for Inhibitors of JMJD2A-Tudor Domain; further: nearly all actives have a fitted effect of over 50% in size
# Settings: AlphaScreen JMJD2A-Tudor / H3K4me3 peptide binding; activity change, negative = inhibition: at 114 µM (top of the series)
# On the % scale 0 is the no-effect control and ±100 the full control effect; potency means the concentration at half of the fitted maximal effect; tags describe the fitted curve by direction and shape.
# Sequence of UniProt O75164 (O75164 whole entry, looked up, the tested form may be a part): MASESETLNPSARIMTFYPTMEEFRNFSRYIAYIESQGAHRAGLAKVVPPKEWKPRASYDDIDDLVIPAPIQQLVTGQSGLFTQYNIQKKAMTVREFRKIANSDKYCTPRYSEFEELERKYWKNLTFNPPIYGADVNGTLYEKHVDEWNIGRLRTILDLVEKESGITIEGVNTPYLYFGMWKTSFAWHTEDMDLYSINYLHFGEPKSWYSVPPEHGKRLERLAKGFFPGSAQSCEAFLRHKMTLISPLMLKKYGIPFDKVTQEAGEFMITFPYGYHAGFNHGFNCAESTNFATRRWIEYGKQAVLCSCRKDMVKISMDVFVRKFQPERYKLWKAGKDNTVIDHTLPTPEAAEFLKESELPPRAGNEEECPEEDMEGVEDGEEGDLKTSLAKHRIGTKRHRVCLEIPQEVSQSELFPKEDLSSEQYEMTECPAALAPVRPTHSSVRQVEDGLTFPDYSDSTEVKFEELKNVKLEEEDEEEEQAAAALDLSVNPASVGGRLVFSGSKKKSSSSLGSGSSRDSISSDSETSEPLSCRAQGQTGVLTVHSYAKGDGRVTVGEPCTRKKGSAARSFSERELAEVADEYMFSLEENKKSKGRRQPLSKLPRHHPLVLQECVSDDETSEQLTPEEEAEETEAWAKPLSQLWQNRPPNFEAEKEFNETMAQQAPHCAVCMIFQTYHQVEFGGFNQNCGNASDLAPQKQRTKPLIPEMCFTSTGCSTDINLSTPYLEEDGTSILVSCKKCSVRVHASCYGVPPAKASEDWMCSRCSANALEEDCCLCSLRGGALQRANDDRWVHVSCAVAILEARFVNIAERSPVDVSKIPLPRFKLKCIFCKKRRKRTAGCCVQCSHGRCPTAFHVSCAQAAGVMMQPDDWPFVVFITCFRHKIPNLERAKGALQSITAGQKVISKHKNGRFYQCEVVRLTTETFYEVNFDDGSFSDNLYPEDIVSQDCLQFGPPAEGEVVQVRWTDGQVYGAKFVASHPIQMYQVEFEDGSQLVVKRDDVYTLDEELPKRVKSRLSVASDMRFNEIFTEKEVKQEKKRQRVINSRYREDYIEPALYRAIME
Structure (SMILES),"activity change, negative = inhibition",Potency
Cc1ccccc1C(=O)Nc1ccnn1C1CCN(C(C)Cc2ccccc2F)CC1 (centres undefined),inactive: -24.8%,–
CCc1ccc(C2CC(=O)Oc3c2c(=O)n(C)c2ccccc32)cc1 (centres undefined),inactive: -10.8%,–
S=C(NCc1ccco1)N1CCN(C/C=C/c2ccccc2)CC1,–,"inconclusive: 79.4 µM [inhibitor, partial curve]"
Cc1cccc(-c2nc(C(N)=O)c3c(n2)n(-c2ccc4c(c2)OCO4)c(=O)n3C)c1,inactive: -15.2%,–
COc1ccc(CNC(=O)Cn2nc(C)c3c(C)n(-c4ccccc4)nc3c2=O)cc1OC,inactive: -7.37%,–
CCN(CC)CCCn1c(=S)[nH]c2cc(C(=O)OC)ccc2c1=O,–,"inconclusive: 25.1 µM [inhibitor, full curve]"
Cc1ccc(CN(Cc2ccco2)c2cnc(S(C)(=O)=O)nc2C(=O)Nc2ccccc2Br)o1,–,"inconclusive: 35.5 µM [inhibitor, partial curve]"
CC(C)C[C@H](NC(=O)c1nc[nH]c1C(=O)NC1CCNCC1)C(=O)OC(C)(C)C,–,"inconclusive: 56.2 µM [inhibitor, partial curve]"
COC(=O)CCC(=O)OC1(C)C(=O)C=C2C=C(C3CC3)N(CCc3c[nH]c4ccccc34)C=C2C1=O (centres undefined),–,"inconclusive: 79.4 µM [inhibitor, partial curve]"
O=S(=O)([O-])CCC[n+]1ccc(Oc2ccccc2)cc1,inactive: 10.6%,–
C=CCOc1ccc(/C(O)=C2\C(=O)C(=O)N(CCOC)C2c2cccnc2)cc1 (centres undefined),–,"inconclusive: 89.1 µM [inhibitor, single point]"
COc1ccc(OC)c(NC(=O)N2CCC(N3CCN(Cc4ccc(F)cc4)C(=O)C3=O)CC2)c1,inactive: -16.6%,–
COC(=O)c1c(NC(=O)c2cc3nc(-c4ccc(Br)cc4)cc(C(F)(F)F)n3n2)sc2c1CCCC2,inactive: -12.3%,–
O=C(Nc1ccc(C(=O)N2CCN(c3ccc(F)cc3)CC2)cc1)C1=CSCCO1,–,"inconclusive: 31.6 µM [inhibitor, full curve, poor fit]"
C=C(C)CNC(=S)NN=C1c2ccccc2-c2ccccc21,–,"inconclusive: 1.12 µM [inhibitor, full curve, poor fit]"
O=C(C=Cc1cccc(O)c1)c1ccccc1O,–,"inconclusive: 50.1 µM [inhibitor, partial curve]"
CC1CCN(c2ccc(NC(=O)c3ccc(Br)o3)cc2)CC1,inactive: -12.5%,–
O=C1CN(C(=O)COC(=O)c2ccc(N3CCCCCC3)c([N+](=O)[O-])c2)c2ccccc2N1,–,"inconclusive: 15.8 µM [inhibitor, full curve]"
CC(C)C[C@@H](CNCC(=O)[C@H](Cc1ccccc1)NC(=O)c1[nH]cnc1C(=O)N[C@@H](C)CN)NC(=O)c1nc[nH]c1C(=O)N[C@@H](CC(=O)O)C(=O)O,–,"inconclusive: 89.1 µM [inhibitor, single point]"
